The campaign covered roughly 410,000 compounds. About 7,200 (1.8%) were called active. The shares of active, inactive and inconclusive entries below differ from those in the screen. Calls come from the whole dose curve; as a rule, active = well fitted activation curve with a large enough effect; inconclusive = small, poorly fitted or top-dose-only effect, or another doubt; inactive = no such curve, though single readings can be large or run the other way. Where the call is inconclusive, the potency comes from a doubtful curve fit.
Experiment: qHTS of TDP-43 Inhibitors; note: nearly all actives have a fitted effect of over 50% in size; for growth rescue (activation): % of control where 0% means no effect
Conditions: TDP-43 expressing yeast growth rescue, BacTiter-Glo, 24 h; growth rescue (activation): at 46.1 µM (top of the series) unless noted
How it was run: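 Cell-based yeast growth screen: TDP-43 expression induced in galactose, inoculum OD600=0.02 after raffinose pregrowth to mid-log. Read-out BacTiter-Glo luminescence at 24 hr, 30 deg C; inhibition of toxicity seen as signal increase.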
Potency is the fitted concentration of half-maximal effect; tags give direction and shape of the fitted curve.

Potency, inactive:
Cc1ccc(OCC(=O)N/N=C\c2c(C)[nH]n(-c3ccccc3)c2=O)c([N+](=O)[O-])c1
CCOC(=O)CNC(=O)N1CCN(S(=O)(=O)c2ccc3c(ccn3C)c2)CC1
CCCNC(=O)c1cc(C2CCCN(C(=O)C3CCCCC3)C2)on1 (stereo not drawn)
COc1ccc(CCN2C(=O)c3[nH]nc(-c4ccccc4O)c3C2c2cccc(O)c2)cc1OC (stereo not drawn)
COc1ccccc1NC(=O)C(C)OC(=O)Cc1ccsc1 (stereo not drawn)
Cn1[nH]c(=O)c2ccccc2c1=O
COc1ccc(C(O)c2nc(-c3cc4ccccc4o3)cs2)cc1 (stereo not drawn)
CN1C(=O)c2cccc3c(S(=O)(=O)Nc4cccc(C(=O)O)c4)ccc1c23
CCOc1ccc(NC(=O)CN(Cc2ccccc2)S(=O)(=O)c2ccc3nc(C)sc3c2)cc1
CCOc1ccccc1CNCc1c(C(=O)O)c(C)n(Cc2ccc(C)cc2)c1C
Cc1cccc(N2CCN(C(=O)C3CCN(C(=O)c4cc5sccc5n4C)CC3)CC2C)c1 (stereo not drawn)
N#Cc1nc(-c2cccc(Cl)c2)oc1NCc1cccnc1
CCCCNc1c(-c2cccc(-c3ccc(OC)cc3)c2)nc2ccc(C)cn12

Potency, active:
COC(=O)c1cccc2c1-c1ccccc1/C2=N/O 12.6 µM
ON=C(CCc1ccccc1)c1ccccc1 15.8 µM
O=C(COC(=O)CCC(=O)c1ccc(Cl)cc1)NCc1ccc(F)cc1 14.1 µM
Cc1ccc(-n2c(C)cc(C(=O)CSc3nnnn3C)c2C)cc1 31.6 µM
CCOC(=O)c1c(-c2ccc(OC)cc2)csc1/N=C/C1=C(O)CCCC1=O 8.91 µM
O=C(N/N=C/c1cc(Br)cc(Cl)c1O)c1ccc2c(c1)OCO2 6.31 µM
CC(=O)c1ccc(NC(=O)c2ccc([N+](=O)[O-])o2)cc1 15.8 µM
O=[N+]([O-])c1ccccc1CNc1ccc(F)c(Cl)c1 17.8 µM
CCCSc1nc2c(c(=O)n1CC)SC(C)C2 (stereo not drawn) 22.4 µM
CCC(C)S(=O)(=O)c1oc(-c2cccs2)nc1S(=O)(=O)c1ccccc1 (stereo not drawn) 11.2 µM
CCCC(=O)Nc1sc(Cc2ccccc2)c(C)c1C(N)=O 17.8 µM
O=C(Nc1cc(Cl)cc(Cl)c1)c1cc(S(=O)(=O)NC2CCCC2)ccc1F 20 µM
Nc1ccc2nc(-c3cccc(-c4nc5ccc(N)cc5[nH]4)c3)[nH]c2c1 14.1 µM
Cc1nc(NC(C)c2ccccc2)c2c3c(sc2n1)CCC3 (stereo not drawn) 14.1 µM
O=C(CCNc1cc(Cl)cc(Cl)c1)c1cccs1 10 µM
COc1ccccc1NC(=S)N1CCN(c2cccc(C)c2C)CC1 17.8 µM
CSc1ccc(NC(=O)C2(C)CCN2C(=O)c2sccc2C)cc1 (stereo not drawn) 35.5 µM
O=C(COc1ccccc1Cl)NC(=S)N1CCc2ccccc21 17.8 µM

Potency, inconclusive:
COc1cccc(C(=O)c2c(-c3ccccc3)ncc3cc(OC)c(OC)cc23)c1 35.5 µM [activator, single point]
COC(=O)C1=CN(Cc2ccc(OC)c(OC)c2)C=C(C(=O)OC)C1c1ccc(F)cc1 6.31 µM [activator, partial curve]
COc1ccccc1CN(C)C(=O)c1ccc(COc2ccccc2)cc1 22.4 µM [activator, single point]
COc1ccc(C(=O)c2ccccc2Cl)cc1 12.6 µM [activator, single point]
O=C(N/N=C/c1cccc([N+](=O)[O-])c1)c1ccccc1-n1cccc1 17.8 µM [activator, partial curve]
CN1C(=O)CC(N2CCN(c3ccc(Cl)c(Cl)c3)CC2)C1=O (stereo not drawn) 14.1 µM [activator, partial curve]
COc1ccc2oc(C(=O)c3ccccc3)c(N)c2c1 15.8 µM [activator, partial curve, poor fit]
Cc1ccc(S(=O)(=O)N(Cc2nccn2C)C(C)C)cc1 3.98 µM [activator, partial curve]
O=c1c2ccccc2c2ccccc2c(=O)n1CC1CCCO1 (stereo not drawn) 25.1 µM [activator, partial curve]
Cc1c(C(=O)c2ccc(Cl)cc2Cl)cnc2cc3c(cc12)OCO3 22.4 µM [activator, single point]
CN1OC[C@@H]2CN(S(=O)(=O)c3cccc4ccccc34)[C@H](c3ccc(-c4ccccc4)cc3)C[C@@H]21 10 µM [activator, partial curve, poor fit]
CCSc1nnc(NC(=O)CSc2nc(CC)nc3c2c(=O)n(C)c(=O)n3C)s1 1.78 µM [activator, partial curve]
COc1ccccc1NC(=O)c1cc([N+](=O)[O-])ccc1N1CCOCC1 10 µM [activator, partial curve]
CCCOc1ccc(C2c3c(oc4ccccc4c3=O)C(=O)N2c2nnc(C(C)C)s2)cc1 (stereo not drawn) 20 µM [activator, single point]
Cc1ccnc(NC(=O)COc2ccc(Cl)cc2)n1 8.91 µM [activator, partial curve]
O=C(O)/C=C/C(=O)Nc1ccc(F)cc1F 22.4 µM [activator, single point]
COc1ccc(CNC(=O)/C=C/c2ccc(OCCCF)cc2)cc1 10 µM [activator, partial curve]
Clc1ccc(C(Cn2ccnc2)OCc2c(Cl)cccc2Cl)c(Cl)c1 (stereo not drawn) 0.562 µM [activator, partial curve, poor fit]
Oc1ccc(Cl)cc1-c1cc(-c2cccc(Br)c2)n[nH]1 6.31 µM [activator, single point]
Cn1ccc2c(-c3cccc(C=O)c3F)cc3c(c21)C1CCC3C1 (stereo not drawn) 35.5 µM [activator, partial curve]
N#Cc1ccc(-n2c(-c3ccccc3)nnc2-c2ccccc2)cc1C#N 14.1 µM [activator, single point]
COCn1c(COc2ccc3ccccc3c2)nc2ccccc21 35.5 µM [activator, single point]
CCOc1c2ccc(C(=O)NC3CCCc4ccccc43)cc2nn1C (stereo not drawn) 14.1 µM [activator, single point]
O=Cc1ccc(-c2cc(Cl)ccc2Cl)[nH]1 15.8 µM [activator, single point]
CCOc1ccc(-n2ccnc2SCC(=O)Nc2cc(C)ccc2C)cc1 11.2 µM [activator, partial curve, poor fit]
Cc1c(C(=O)N(Cc2ccc(Cl)cc2)C2CCS(=O)(=O)C2)oc2ccccc12 (stereo not drawn) 20 µM [activator, single point]
O=C(NCCc1nc2ccccc2n1Cc1ccccc1F)c1ccc(F)cc1 3.16 µM [activator, partial curve]
O=C(NCC1CCCO1)c1cccc(Oc2ccc([N+](=O)[O-])cc2)c1 (stereo not drawn) 8.91 µM [activator, partial curve]
CN1CCc2nc3sc(C(=O)c4ccc(F)cc4)c(N)c3cc2C1 35.5 µM [activator, single point]
COc1cccc(-c2nnc(SCC(=O)N(C)C3CCCCC3)o2)c1 22.4 µM [activator, partial curve]
CSc1cccc(NC(=S)NC(=O)CCc2ccccc2)c1 10 µM [activator, partial curve]
O=C(CCCN1C(=O)/C(=C/c2cccc(Br)c2)SC1=S)Nc1ccccn1 12.6 µM [activator, single point]
CN(c1ccc(F)cc1)S(=O)(=O)N1CCCC(C(=O)NCc2ccccc2Cl)C1 (stereo not drawn) 35.5 µM [activator, single point]
CCN(CC)S(=O)(=O)c1ccc(OC)c(NC(=O)c2sc3ccccc3c2Cl)c1 3.16 µM [activator, partial curve]
COc1ccc2c(c1)c(N1CCCC1=O)c(C(=O)Nc1ccc(OC)c(Cl)c1)n2C 35.5 µM [activator, single point]
COc1cc(-c2nnc(COC(=O)CSc3cc(C)c4ccccc4n3)o2)cc(OC)c1OC 35.5 µM [activator, partial curve, poor fit]
COc1ccc(-c2cc(NC(C)=O)c3ncc(-c4cc(OC)c(OC)c(OC)c4)n3c2)cn1 2.82 µM [activator, partial curve]
C=CCn1c(O)c(N=NC(=S)Nc2ccc(OC)cc2)c2ccccc21 35.5 µM [activator, single point]
CC(C)(C)C(=O)NNc1nc(-c2ccccc2)c2cc(Br)ccc2n1 12.6 µM [activator, partial curve]

Growth rescue (activation), inconclusive:
O=C(c1ccccc1)N1CCN(CC(O)COCC2CC=CCC2)CC1 (stereo not drawn) 13.7% [activator]
O=C(COc1ccccc1Cl)NC(=O)NC1CCCCC1 31.9% [activator]
Cc1cccc(NC(=O)c2ccc(C(=O)c3ccccc3)cc2)n1 32.1% [activator]

From PubChem BioAssay AID652104 (National Center for Advancing Translational Sciences (NCATS), 2013)
